Results on 102 sequences are retold here after a collection of fitness landscapes (doi:10.1038/s41467-024-54723-y).

Over roughly 18,000 sequences, “TetR repression strength (sort-seq, GFP reporter)” has its median near 0.23; the highest 2% begin near 0.68. The list shows a part of the results.

This experiment addresses TetR (class B, Tn10) (UniProt P04483). Description: TetR repression strength (sort-seq, GFP reporter) (relative to tetO2 = 1); higher = stronger repression. Conditions: E. coli. Summed up: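 Three independent transformations of E. coli SIG10-MAX were made with a low-copy plasmid library randomizing eight operator positions between a constitutive promoter and sfGFP, with constitutive TetR. Following 5 h at 37 °C in LB plus 50 µg/mL chloramphenicol, 10^6 cells went through FACS into 13 fluorescence bins, and each bin was sequenced by Illumina. Repression strength was defined as the top bin index plus one minus the read-weighted mean bin, divided by the unaltered operator's value. Averages included only members reaching ≥30 reads in all replicates with a CV ≤0.5.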
UniProt P04483, sequence (P04483 whole entry): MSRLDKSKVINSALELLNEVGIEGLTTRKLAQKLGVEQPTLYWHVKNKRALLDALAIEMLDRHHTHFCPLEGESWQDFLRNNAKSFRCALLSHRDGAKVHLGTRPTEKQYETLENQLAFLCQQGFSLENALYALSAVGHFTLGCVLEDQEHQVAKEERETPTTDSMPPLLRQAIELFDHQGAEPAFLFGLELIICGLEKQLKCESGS
TCCCGCTAAGTAACAGAGA came in with a TetR repression strength of 0.429.

Regarding TCCCCGGTAGTCGAAGAGA, the TetR repression strength was 0.143.

TCCCCGTAAGTCCCCGAGA: the TetR repression strength stood at 0.32.

With TCCCGAGGAGTATCTGAGA, the TetR repression strength turned out to be 0.403.

As to TCCCGGATAGTATTAGAGA, the TetR repression strength was 0.202.

For TCCCAGGCAGTGTATGAGA, the TetR repression strength is 0.188.

Take TCCCTGTGAGTGTGAGAGA: the TetR repression strength was 0.

TCCCGGGGAGTCACCGAGA registered a TetR repression strength of 0.206.

In the case of TCCCTCTGAGTACTTGAGA, the TetR repression strength was 0.226.

Sequence TCCCGACAAGTCGGGGAGA registered a TetR repression strength of 0.215.

As for TCCCAGAGAGTGTACGAGA, the TetR repression strength worked out at 0.124.

As to TCCCACCCAGTGTAAGAGA, the TetR repression strength was 0.312.

In the case of TCCCAGAGAGTGCGGGAGA, the TetR repression strength came to 0.251.

Regarding TCCCAGGCAGTTGACGAGA, the TetR repression strength was found to be 0.698.

TCCCTGAGAGTCCGTGAGA came in with a TetR repression strength of 0.183.

As for TCCCATACAGTTGACGAGA, the TetR repression strength was 0.321.

For TCCCGGATAGTCTGGGAGA, the TetR repression strength was 0.217.

TCCCATCAAGTTGGAGAGA displayed a TetR repression strength of 0.381.

For TCCCTCCCAGTATGGGAGA, the TetR repression strength came out at 0.184.

Sequence TCCCTAAAAGTGACGGAGA had a TetR repression strength of 0.0201.

The sequence TCCCGCCCAGTTGCGGAGA registered a TetR repression strength of 0.222.

As to TCCCGGTAAGTAGGGGAGA, the TetR repression strength amounted to 0.272.

TCCCTCGGAGTGGGGGAGA gave a TetR repression strength of 0.219.

TCCCTCAAAGTACGGGAGA: the TetR repression strength was 0.257.

The sequence TCCCAGCTAGTTCATGAGA showed a TetR repression strength of 0.245.

The sequence TCCCTCTGAGTTGGGGAGA had a TetR repression strength of 0.322.

As for TCCCGACTAGTGGAAGAGA, the TetR repression strength stood at 0.336.

On to TCCCTAGCAGTTGGGGAGA, for which the TetR repression strength was determined as 0.0902.

Consider TCCCACGAAGTGCCGGAGA, for which the TetR repression strength was found to be 0.305.

TCCCAGTTAGTGGGAGAGA returned a TetR repression strength of 0.136.

Regarding TCCCTTTGAGTGTTGGAGA, the TetR repression strength was found to be 0.212.

TCCCGGTAAGTGCGGGAGA had a TetR repression strength of 0.209.

TCCCAGCGAGTACGGGAGA: the TetR repression strength was found to be 0.188.

For the sequence TCCCTGGCAGTGTCCGAGA, the TetR repression strength stood at 0.314.

Regarding TCCCTAGTAGTGACGGAGA, the TetR repression strength came out at 0.227.

TCCCGTTAAGTTGCTGAGA showed a TetR repression strength of 0.517.

Consider TCCCTCATAGTCAAAGAGA, for which the TetR repression strength turned out to be 0.455.

As for TCCCGGGTAGTCAGTGAGA, the TetR repression strength is 0.145.

With TCCCAGGTAGTAAGCGAGA, the TetR repression strength was determined as 0.225.

Regarding TCCCCGGCAGTATGCGAGA, the TetR repression strength came out at 0.336.

TCCCTAGCAGTGAGGGAGA displayed a TetR repression strength of 0.168.

Sequence TCCCGGACAGTGGGGGAGA showed a TetR repression strength of 0.256.

With TCCCAGGCAGTGCCTGAGA, the TetR repression strength came to 0.0998.

For TCCCTGCTAGTGAAAGAGA, the TetR repression strength stood at 0.334.

TCCCTTCGAGTGGGTGAGA: the TetR repression strength was 0.47.

Take TCCCATACAGTGGGTGAGA: the TetR repression strength stood at 0.196.

As for TCCCTGGCAGTGGGCGAGA, the TetR repression strength amounted to 0.144.

On to TCCCTGACAGTAGTCGAGA, for which the TetR repression strength amounted to 0.128.

The sequence TCCCTGATAGTGGGGGAGA gave a TetR repression strength of 0.0581.

Sequence TCCCCTTGAGTGCACGAGA came in with a TetR repression strength of 0.425.

In turn, TCCCGGTAAGTCTCGGAGA came in with a TetR repression strength of 0.256.

As for TCCCGGCCAGTAACCGAGA, the TetR repression strength came out at 0.327.

Consider TCCCTCGGAGTACGAGAGA, for which the TetR repression strength stood at 0.137.

With TCCCATCGAGTGTCAGAGA, the TetR repression strength worked out at 0.253.

Sequence TCCCGCAAAGTCCAAGAGA showed a TetR repression strength of 0.488.

TCCCCCGCAGTGCGTGAGA returned a TetR repression strength of 0.0304.

In turn, TCCCGGTGAGTGTAGGAGA showed a TetR repression strength of 0.156.

Turning to TCCCCAGGAGTCCTAGAGA, the TetR repression strength came to 0.235.

Sequence TCCCATGCAGTGAGGGAGA returned a TetR repression strength of 0.441.

Consider TCCCATTTAGTCAGGGAGA, for which the TetR repression strength was 0.191.

TCCCTAGGAGTCAGGGAGA displayed a TetR repression strength of 0.0522.

Regarding TCCCGCTGAGTCCGGGAGA, the TetR repression strength came out at 0.401.

With TCCCGGCAAGTCAGTGAGA, the TetR repression strength turned out to be 0.184.

For the sequence TCCCTCGTAGTATGTGAGA, the TetR repression strength came out at 0.282.

TCCCTTTTAGTAAGTGAGA: the TetR repression strength amounted to 0.148.

In turn, TCCCCGATAGTATGCGAGA showed a TetR repression strength of 0.157.

Regarding TCCCTGTGAGTGACGGAGA, the TetR repression strength worked out at 0.115.

TCCCTCCAAGTTGCAGAGA returned a TetR repression strength of 0.424.

TCCCGCGCAGTTCGAGAGA registered a TetR repression strength of 0.356.

Sequence TCCCGGGAAGTACACGAGA displayed a TetR repression strength of 0.0718.

Sequence TCCCGCTAAGTAGCTGAGA displayed a TetR repression strength of 0.33.

TCCCGAACAGTTCTAGAGA gave a TetR repression strength of 0.207.

As for TCCCTTTAAGTGGTCGAGA, the TetR repression strength was 0.104.

TCCCTTGGAGTGCCAGAGA yielded a TetR repression strength of 0.296.

TCCCATCGAGTCCGTGAGA gave a TetR repression strength of 0.443.

TCCCTGTTAGTACGCGAGA had a TetR repression strength of 0.182.

In turn, TCCCAGAGAGTACCTGAGA came in with a TetR repression strength of 0.128.

Take TCCCATCTAGTCACGGAGA: the TetR repression strength was determined as 0.181.

As to TCCCGATAAGTCTGGGAGA, the TetR repression strength was found to be 0.317.

With TCCCTGGTAGTAGAAGAGA, the TetR repression strength was 0.331.

Turning to TCCCCGCCAGTCGGTGAGA, the TetR repression strength came to 0.179.

Regarding TCCCACGGAGTCTCGGAGA, the TetR repression strength is 0.166.

Turning to TCCCGTGCAGTGTTAGAGA, the TetR repression strength worked out at 0.202.

The sequence TCCCATAGAGTGGTGGAGA registered a TetR repression strength of 0.198.

TCCCTCGTAGTGCCGGAGA: the TetR repression strength came out at 0.133.

TCCCGAGTAGTCGCTGAGA showed a TetR repression strength of 0.319.

For TCCCATCGAGTGATCGAGA, the TetR repression strength was 0.294.

With TCCCCATTAGTTCTCGAGA, the TetR repression strength was 0.407.

TCCCAACCAGTCGGAGAGA came in with a TetR repression strength of 0.0864.

Take TCCCCTAGAGTGGGGGAGA: the TetR repression strength came out at 0.195.

As to TCCCTATAAGTCCGCGAGA, the TetR repression strength amounted to 0.331.

The sequence TCCCCTCAAGTTGAAGAGA yielded a TetR repression strength of 0.124.

TCCCGCGCAGTGCTAGAGA returned a TetR repression strength of 0.282.

TCCCTCTTAGTTGATGAGA: the TetR repression strength came out at 0.104.

As for TCCCTAAGAGTATTGGAGA, the TetR repression strength was 0.271.

Sequence TCCCTGTGAGTCCTCGAGA showed a TetR repression strength of 0.489.

Sequence TCCCGGGGAGTCAGGGAGA showed a TetR repression strength of 0.219.

TCCCGCTGAGTTACGGAGA gave a TetR repression strength of 0.652.

Turning to TCCCAAGGAGTCTTGGAGA, the TetR repression strength was determined as 0.102.

Regarding TCCCCGGAAGTGGGGGAGA, the TetR repression strength came out at 0.27.

For TCCCGCGTAGTTTTTGAGA, the TetR repression strength turned out to be 0.264.

TCCCTTGTAGTGGGAGAGA had a TetR repression strength of 0.0318.
